Data taken from the supplement of paper PMC4967469.
A lower IC50 marks a more sensitive line; a limit (>, <) means that the fit lies beyond the doses tested. The AUC spans the tested range (256-fold, ending at the top dose) of the same fit; values near 1 show little effect. For some of these results: A top dose marked as inferred was derived from the fitted curves, not read from the paper. For some of these results: Drugs with an entry number were screened twice under separate entries, and the two screens often disagree.

Tests used:
Test in all cases: Viability of human cancer cell lines after 72 h of drug (GDSC screen)
Elesclomol = compound: CN(NC(=O)CC(=O)NN(C)C(=S)c1ccccc1)C(=S)c1ccccc1 [Elesclomol]; conditions: top dose 0.2 µM; top dose inferred
Description: (§1)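 Human cancer cell lines in 384-well plates, medium with 10% serum, drug for 72 h over a 256-fold dose range (nine 2-fold or five 4-fold steps up to the top dose). Adherent lines were fixed and stained with the nucleic acid dye Syto60, suspension lines read with resazurin; signal relative to control wells, capped at 0 and 100%. One two-parameter sigmoid per drug and line, fitted in a mixed model over all curves with the slope shared within a line.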

Bleomycin = compound: Cc1c(N)nc([C@H](CC(N)=O)NC[C@H](N)C(N)=O)nc1C(=O)N[C@H](C(=O)N[C@H](C)[C@@H](O)[C@H](C)C(=O)N[C@H](C(=O)NCCc1nc(-c2nc(C(=O)NCCC[S+](C)C)cs2)cs1)[C@@H](C)O)[C@@H](OC1OC(CO)C(O)C(O)C1OC1OC(CO)C(O)C(OC(N)=O)C1O)c1cnc[nH]1 [Bleomycin]
Description: as §1

BX-912 = compound: O=C(Nc1cccc(Nc2ncc(Br)c(NCCc3cnc[nH]3)n2)c1)N1CCCC1 [BX-912]; conditions: top dose 10.24 µM; top dose inferred
Description: as §1

Tamoxifen = compound: CC/C(=C(\c1ccccc1)c1ccc(OCCN(C)C)cc1)c1ccccc1 [Tamoxifen]; conditions: top dose 5 µM
Description: as §1

OSI-930 = compound: O=C(Nc1ccc(OC(F)(F)F)cc1)c1sccc1NCc1ccnc2ccccc12 [OSI-930]; conditions: top dose 10.24 µM
Description: as §1

VNLG/124 = compound: CCCC(=O)OCc1ccc(OC(=O)/C=C(C)/C=C/C=C(C)/C=C/C2=C(C)CCCC2(C)C)cc1 [VNLG/124]; conditions: top dose 5.12 µM; top dose inferred
Description: as §1

NSC-87877 = compound: O=S(=O)(O)c1ccc2cc(N=Nc3cc(S(=O)(=O)O)c4cccnc4c3O)ccc2c1 [NSC-87877]; conditions: top dose 16 µM; top dose inferred
Description: as §1

Masitinib = compound: Cc1ccc(NC(=O)c2ccc(CN3CCN(C)CC3)cc2)cc1Nc1nc(-c2cccnc2)cs1 [Masitinib]; conditions: top dose 20 µM
Description: as §1

LAQ824 = compound: O=C(/C=C/c1ccc(CN(CCO)CCc2c[nH]c3ccccc23)cc1)NO [LAQ824]; conditions: top dose 1.024 µM; top dose inferred
Description: as §1

[1] = top dose 50 µM, screen: GDSC drug entry 1378, top dose inferred
[2] = top dose 64 µM, screen: GDSC drug entry 190

Cell Line	AUC (Elesclomol)	IC50 (Elesclomol)	AUC (Bleomycin; [1])	IC50 (Bleomycin; [1])	AUC (BX-912)	IC50 (BX-912)	AUC (Tamoxifen)	IC50 (Tamoxifen)	AUC (Bleomycin; [2])	IC50 (Bleomycin; [2])	AUC (OSI-930)	IC50 (OSI-930)	AUC (VNLG/124)	IC50 (VNLG/124)	AUC (NSC-87877)	IC50 (NSC-87877)	AUC (Masitinib)	IC50 (Masitinib)	AUC (LAQ824)	IC50 (LAQ824)
RH-18 (rhabdomyosarcoma, adherent)	0.777	0.0927 µM	0.807	30.1 µM	0.815	6.68 µM	0.959	> 5 µM												
TC-YIK (cervix, suspension)	0.808	0.0875 µM	0.83	25.8 µM			0.974	> 5 µM												
MOLT-16 (T-cell lymphoblastic leukaemia, suspension)	0.252	0.00292 µM	0.219	0.592 µM			0.905	4.32 µM												
NCI-H1105 (small cell lung carcinoma, suspension)	0.971	> 0.2 µM	0.88	36.4 µM			0.993	> 5 µM												
CML-T1 (chronic myeloid leukaemia, suspension)	0.641	0.0285 µM	0.532	3.76 µM			0.98	> 5 µM												
BALL-1 (B-cell leukaemia, suspension)	0.937	0.179 µM	0.983	> 50 µM			0.995	> 5 µM												
MOLM-16 (acute myeloid leukaemia, suspension)	0.38	0.00611 µM	0.843	29.4 µM			0.968	> 5 µM												
U-266 (myeloma, semi-adherent)	0.563	0.0197 µM	0.896	> 50 µM			0.93	> 5 µM												
CRO-AP2 (B-cell lymphoma, suspension)	0.463	0.0101 µM	0.494	3.01 µM			0.986	> 5 µM												
CL-40 (large intestine, adherent)	0.975	> 0.2 µM	0.602	7.18 µM			0.958	> 5 µM												
JEKO-1 (B-cell lymphoma, suspension)	0.576	0.02 µM	0.858	38.2 µM			0.962	> 5 µM												
NCI-H1341 (small cell lung carcinoma, suspension)	0.638	0.0282 µM	0.936	> 50 µM			0.97	> 5 µM												
NCI-H835 (lung carcinoid, suspension)	0.842	0.13 µM	0.982	> 50 µM			0.983	> 5 µM												
KARPAS-1106P (B-cell lymphoma, suspension)	0.685	0.037 µM	0.857	29.9 µM			0.976	> 5 µM												
SK-MEL-31 (melanoma, adherent)	0.63	0.0317 µM	0.927	> 50 µM			0.975	> 5 µM												
NCI-H146 (small cell lung carcinoma, suspension)	0.839	0.0981 µM	0.981	> 50 µM			0.991	> 5 µM												
SUP-B8 (B-cell leukaemia, suspension)	0.747	0.0635 µM	0.807	25.5 µM			0.98	> 5 µM												
TCCSUP (bladder, adherent)			0.669	9.93 µM	0.974	> 10.2 µM	0.982	> 5 µM	0.693	15.1 µM	0.985	> 10.2 µM	0.984	> 5.12 µM	0.982	> 16 µM	0.904	> 20 µM	0.486	0.0582 µM
JAR (urogenital system, adherent)			0.488	2.9 µM	0.895	> 10.2 µM	0.903	> 5 µM	0.944	> 64 µM	0.983	> 10.2 µM	0.973	> 5.12 µM	0.985	> 16 µM	0.868	17.6 µM	0.572	0.1 µM
ChaGo-K-1 (non-small cell lung carcinoma, adherent)			0.758	20 µM	0.96	> 10.2 µM	0.953	> 5 µM	0.663	12.3 µM	0.983	> 10.2 µM	0.984	> 5.12 µM	0.985	> 16 µM	0.958	> 20 µM	0.596	0.122 µM

Cell Line	AUC (Elesclomol)	IC50 (Elesclomol)	AUC (Bleomycin; [1])	IC50 (Bleomycin; [1])	AUC (BX-912)	IC50 (BX-912)	AUC (Tamoxifen)	IC50 (Tamoxifen)	AUC (Bleomycin; [2])	IC50 (Bleomycin; [2])	AUC (OSI-930)	IC50 (OSI-930)	AUC (VNLG/124)	IC50 (VNLG/124)	AUC (NSC-87877)	IC50 (NSC-87877)	AUC (Masitinib)	IC50 (Masitinib)	AUC (LAQ824)	IC50 (LAQ824)
NCI-H2170 (lung squamous cell carcinoma, adherent)			0.869	49.8 µM	0.942	> 10.2 µM	0.977	> 5 µM	0.093	< 0.25 µM	0.97	> 10.2 µM	0.983	> 5.12 µM	0.987	> 16 µM	0.964	> 20 µM	0.431	0.0411 µM
PL18 (pancreas, adherent)					0.982	> 10.2 µM	0.987	> 5 µM	0.318	1.24 µM	0.962	> 10.2 µM	0.988	> 5.12 µM	0.988	> 16 µM	0.928	> 20 µM	0.582	0.107 µM
SW1463 (large intestine, adherent)			0.938	> 50 µM	0.974	> 10.2 µM	0.975	> 5 µM	0.637	12.5 µM	0.972	> 10.2 µM	0.963	> 5.12 µM	0.953	> 16 µM	0.905	> 20 µM	0.695	0.339 µM
CFPAC-1 (pancreas, adherent)			0.509	3.32 µM	0.918	> 10.2 µM	0.973	> 5 µM	0.245	0.651 µM	0.984	> 10.2 µM	0.983	> 5.12 µM	0.982	> 16 µM	0.909	> 20 µM	0.559	0.0953 µM
KP-4 (pancreas, adherent)			0.537	3.92 µM	0.651	1.65 µM	0.987	> 5 µM	0.407	2.25 µM	0.982	> 10.2 µM	0.988	> 5.12 µM	0.988	> 16 µM	0.916	> 20 µM	0.605	0.123 µM
SW1088 (glioma, adherent)			0.668	10.6 µM	0.919	> 10.2 µM	0.908	> 5 µM	0.895	> 64 µM	0.949	> 10.2 µM	0.938	> 5.12 µM	0.979	> 16 µM	0.923	> 20 µM	0.783	0.574 µM
KNS-62 (lung squamous cell carcinoma, adherent)	0.457	0.00903 µM	0.643	9.31 µM			0.904	> 5 µM												
OAW-28 (ovary, adherent)			0.709	14.4 µM	0.86	> 10.2 µM	0.977	> 5 µM	0.629	9.97 µM	0.982	> 10.2 µM	0.982	> 5.12 µM	0.983	> 16 µM	0.89	> 20 µM	0.528	0.0781 µM
RERF-GC-1B (stomach, adherent)			0.659	9.13 µM	0.781	4.75 µM	0.964	> 5 µM	0.743	21.9 µM	0.961	> 10.2 µM	0.972	> 5.12 µM	0.985	> 16 µM	0.825	13.9 µM	0.367	0.0263 µM
COLO-792 (melanoma, adherent)			0.372	1.39 µM	0.973	> 10.2 µM	0.987	> 5 µM	0.52	4.52 µM	0.98	> 10.2 µM	0.987	> 5.12 µM	0.988	> 16 µM	0.799	9.4 µM	0.803	0.5 µM
BFTC-909 (kidney, adherent)			0.301	0.876 µM	0.933	> 10.2 µM	0.951	> 5 µM	0.131	0.282 µM	0.975	> 10.2 µM	0.984	> 5.12 µM	0.988	> 16 µM	0.978	> 20 µM	0.43	0.0413 µM
MHH-CALL-2 (B-cell leukaemia, suspension)	0.97	> 0.2 µM	0.756	13.3 µM			0.985	> 5 µM												
SNU-398 (liver, adherent)			0.61	6.33 µM	0.863	9.4 µM	0.976	> 5 µM	0.03	< 0.25 µM	0.984	> 10.2 µM	0.976	> 5.12 µM	0.986	> 16 µM	0.894	> 20 µM	0.277	0.0144 µM
IGROV-1 (ovary, adherent)	0.408	0.00622 µM					0.959	> 5 µM												
LU-99A (large cell lung carcinoma, adherent)			0.062	< 0.195 µM	0.868	9.17 µM	0.986	> 5 µM	0.028	< 0.25 µM	0.963	> 10.2 µM	0.986	> 5.12 µM	0.987	> 16 µM	0.974	> 20 µM	0.433	0.042 µM
SW156 (kidney, adherent)			0.836	38.5 µM	0.965	> 10.2 µM	0.984	> 5 µM	0.492	3.81 µM	0.973	> 10.2 µM	0.986	> 5.12 µM	0.986	> 16 µM	0.927	> 20 µM	0.528	0.077 µM
SN12C (kidney, adherent)			0.663	9.4 µM	0.869	> 10.2 µM	0.977	> 5 µM	0.831	47.8 µM	0.969	> 10.2 µM	0.983	> 5.12 µM	0.981	> 16 µM	0.966	> 20 µM	0.675	0.21 µM
769-P (kidney, adherent)			0.5	3.12 µM	0.923	> 10.2 µM	0.953	> 5 µM	0.163	0.331 µM	0.982	> 10.2 µM	0.983	> 5.12 µM	0.976	> 16 µM	0.756	7.41 µM	0.383	0.0296 µM
RCH-ACV (B-cell leukaemia, suspension)	0.842	0.105 µM	0.551	4.19 µM			0.99	> 5 µM												
MEL-HO (melanoma, adherent)	0.888	> 0.2 µM	0.758	17.5 µM			0.95	> 5 µM												
